Results as given in PubChem BioAssay AID1347073 (National Center for Advancing Translational Sciences (NCATS), 2019).
Among all 45,000 compounds or so, about 200 (0.44%) were called active. Another 7% or so got no clear call; they are omitted. The call rests on the fitted dose curve; in most records, active means well fitted activation curve with a large enough effect; inconclusive means small, poorly fitted or top-dose-only effect; inactive means no such curve, though single readings can be large or run the other way. The list shows a part of the results.

assay: qHTS of TDP-43 Inhibitors: NCGC Sytravon Library Screen; settings: yeast TDP-43 toxicity rescue, BacTiter-Glo growth, 24 h; series mostly up to 46.1 µM; growth rescue (activation): at the top concentration; further: 0% is about no effect; nearly all actives have a fitted effect of over 55% in size
Summary of the method: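 TDP-43-expressing yeast, pregrown in raffinose, seeded at OD600 0.02 in galactose medium with compound for 24 hr at 30 deg C. Growth read by BacTiter-Glo luminescence, so rescue of toxicity appears as activation.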

Compound	growth rescue (activation)
COc1cc(CCC(=O)N2CCN(c3ncccn3)CC2)cc(OC)c1OC	inactive: 6.04%
Cc1ccc(N(CC(=O)NCCc2ccccc2)C(=O)c2csnn2)cc1	inactive: -3.46%
Cc1cccc(NC(=O)CN2C(=O)S/C(=C\c3ccc(O)c([N+](=O)[O-])c3)C2=O)c1	inactive: -0.269%
COc1cc(C#N)ccc1OCC(=O)N1CCc2ccccc2C1	inactive: 12.5%
CN1C(=O)N(C)c2ccc(C=O)c3cccc1c23	inactive: 1.3%
Cc1cccc(NC2=C(NCCO)C(=O)c3ccccc3C2=O)c1	inactive: 4.42%
CCN(CC)c1ccc(S(=O)(=O)N2CCOCC2)cc1NC(=O)Nc1ccccc1	inactive: -3.88%
O=C(CSc1nnc2ccccn12)c1ccc(Cl)cc1	inactive: 9.01%
O=C(O)c1cccc(Nc2nc3ccccc3nc2NS(=O)(=O)c2ccccc2)c1	inactive: 18.4%
CC(c1nccs1)N(C)C(=O)CCc1nnc(CCc2ccccc2)o1 (stereo not drawn)	inactive: 3.33%
O=C(O)c1nn(CC(=O)N2CCN(c3ncc(C(F)(F)F)cc3Cl)CC2)c(=O)c2ccccc12	inactive: 1.63%
COc1cc(NC(=O)c2cccs2)cc(OC)c1	inactive: -22.9%
COc1cc(C(=O)NC(C)Cc2cccs2)cc(OC)c1OC (stereo not drawn)	inactive: -4.72%
CC(=O)Nc1ccc(S(=O)(=O)N(C)CC(=O)OCC(=O)NC(C)C23CC4CC(CC(C4)C2)C3)cc1 (stereo not drawn)	inactive: 3.28%
C/C(=N\Nc1nc2ccccc2c(=O)n1O)c1ccco1	inactive: 1.91%
COc1ccc(N2CCOCC2)c(NC(=O)c2ccc3c(c2)OCO3)c1	inactive: 14.1%
COc1ccc(-c2cn3cc(Br)cnc3n2)cc1	inactive: 3.96%
Cn1cccc1C(=O)NC(=O)COC(=O)CNS(=O)(=O)c1ccc(Br)cc1	inactive: 8.36%
COc1ccc(OCCn2cnc(Cl)c2Cl)cc1	inactive: 24.9%
Cc1ccc(CN(C(=O)c2csnn2)C(C(=O)NC2CCCC2)c2ccco2)cc1 (stereo not drawn)	inactive: 2.42%
CC(=O)c1cc2c(cc1NS(=O)(=O)c1cccc(C(=O)O)c1)OCO2	inactive: -15.3%
COC(=O)Cc1c(C(=O)OC)nnn1-c1ccc(OC(F)(F)F)cc1	inactive: 1.05%

Compound	growth rescue (activation)
Nc1c(C(=O)OCC(=O)Nc2cccc([N+](=O)[O-])c2)[nH]c(=O)[nH]c1=O	inactive: 1.22%
COc1ccc(S(=O)(=O)NCCc2cc3ccc(C)c(C)c3[nH]c2=O)cc1	inactive: -6.09%
COc1ccc(S(=O)(=O)N(CC(=O)NCCC(C)C)c2ccccc2)cc1OC	inactive: -4.55%
CCNC(=O)C1(C)CCN(C(=O)c2ccc(C#N)cc2)C1 (stereo not drawn)	inactive: -2.56%
CCOC(=O)C1(CC2CC2)CCN(C(=O)c2cc(OC)nc3ccccc23)CC1	inactive: 24.5%
COc1ccc(-c2nc(C)sc2CC(=O)O)cc1OC	inactive: 7.89%
Cc1ccc(-c2sc(-c3ccccc3)nc2CC(=O)Nc2ccccc2F)cc1	inactive: 3.08%
COc1ccc(C(=O)NCCNC(=O)c2ccccn2)cc1	inactive: -7.8%
Cc1ccc(NC(=O)Nc2ccnc(-c3cccnc3)n2)cc1	inactive: 17.4%
O=C(CCc1ccccc1)NCCSc1ccccc1	inactive: 27.8%
O=C(Nc1ccc(N2CCCC2)c(Cl)c1)c1cccc(-c2cc3ccccc3oc2=O)c1	inactive: 23%
COc1ccc(C2CC(=O)C3=C(C2)NC(C)=C(C#N)C3c2ccc(N(C)C)cc2)cc1 (stereo not drawn)	inactive: 5.51%
Cn1c(=O)n(C)c2cc(NS(=O)(=O)c3ccc(F)cc3)ccc21	inactive: -0.43%
CCOc1ccc(NC(=S)N2CCN(S(=O)(=O)c3ccc(OC)cc3)CC2)cc1	inactive: 17.6%
Cc1cc(C)n2c(Nc3ccc(Cl)cc3)c(-c3ccsc3)nc2n1	inactive: 14.7%
Cc1nn(Cc2ccccc2)c(C)c1NC(=O)CSc1nc(-c2ccccc2)nc2c1cnn2-c1ccccc1	inactive: 37.5%
O=C(NN1C(=O)c2ccccc2C1=O)c1ccc2c(c1)C(=O)N(CC1CCCO1)C2=O (stereo not drawn)	inactive: 27.7%
CCCS(=O)(=O)NC(=O)C1(C)CCN(C(=O)c2cc(C)oc2C)C1 (stereo not drawn)	inactive: 3.36%
O=C(NCCCN1CCCCCC1)c1ccc(CS(=O)(=O)Cc2ccccc2F)o1	inactive: -14.9%
COc1ccc(C)cc1S(=O)(=O)NCc1cccs1	inactive: 14.3%
COc1ccc(CCNC(=O)c2ccc(OCc3c(C)noc3C)c(OC)c2)cc1	inactive: 23.3%
CC1CN(CC(=O)NCc2ccc(F)cc2)CC(C)O1 (stereo not drawn)	inactive: 4.63%

Compound	growth rescue (activation)
COc1ccc(OC)c(S(=O)(=O)N2CCCC(C(=O)NCc3ccccn3)C2)c1 (stereo not drawn)	inactive: 3.4%
CC1(C(=O)Nc2cccc(NS(C)(=O)=O)c2)Cc2c(-c3cccc(C(N)=O)c3)ccnc2O1 (stereo not drawn)	inactive: 4.76%
O=C(c1ccc2c(c1)OCO2)N1CCN(c2ccccn2)CC1	inactive: 11.3%
Cc1cccc(C)c1OCC(=O)NC(Cc1c[nH]c2ccccc12)C(=O)O (stereo not drawn)	inactive: -5.17%
O=S(=O)(c1ccc(OCC(O)CNC23CC4CC(CC(C4)C2)C3)c(Cl)c1)N1CCOCC1 (stereo not drawn)	inactive: 8.97%
Cc1c(C(=O)Nc2cccc(S(=O)(=O)N3CCOCC3)c2)oc2ccccc12	inactive: -0.938%
COc1cc(C(C)=O)ccc1OCC(=O)NCCCn1nc(C)cc1C	inactive: -0.089%
CC1(Cc2ccccc2OC(F)(F)F)C(=O)Nc2c(Cl)ccc(Cl)c21 (stereo not drawn)	inactive: -4.61%
C/C(=N\NS(=O)(=O)c1ccccc1)c1cccc(NC(=O)c2cccc(Cl)c2)c1	inactive: 7.34%
CC(=O)Nc1ccc(S(=O)(=O)NNC2=NS(=O)(=O)c3ccccc32)cc1	inactive: -1.5%
C=CCN(C(=O)c1csnn1)C(C(=O)NCc1ccc(F)cc1)c1ccccc1 (stereo not drawn)	inactive: 15.9%
O=C(CCCN1C(=O)/C(=C/c2ccccc2OC(F)F)SC1=S)Nc1cccnc1	inactive: 9.14%
CCN(c1cccc(C)c1)S(=O)(=O)c1csc(C(N)=O)c1	inactive: 0.49%
Cc1ccc(NS(=O)(=O)c2ccc(Cl)c(NC(=S)NC(=O)C3CCCCC3)c2)cc1Cl	inactive: 12.9%
CC(OC(=O)CCN1C(=O)c2cccc([N+](=O)[O-])c2C1=O)C(=O)Nc1cc(Cl)cc(Cl)c1 (stereo not drawn)	inactive: -10.3%
CCCS(=O)(=O)N1CCC(C(=O)NCCCOC)CC1	inactive: -3.35%
COCCNC(=O)C1(C)CCN(C(=O)c2ccc(F)c(C)c2)C1 (stereo not drawn)	inactive: -8.71%
CC1(C)Cc2nc3oc4c(=O)n(CC(=O)Nc5ccccc5)cnc4c3cc2CO1	inactive: 11.8%
CCCCn1c(O)c(N=NC(=O)c2ccccc2NS(=O)(=O)c2cccs2)c2ccccc21	inactive: -20.8%
CCOc1cc(/C=C\c2nc(O)c([N+](=O)[O-])c(=O)[nH]2)ccc1OC(C)C	inactive: 14.1%
O=C(O)/C(=C\c1ccccc1OC(F)F)Sc1nnc(-c2ccc(F)cc2)o1	inactive: -50.3%
CC(C)c1ccc(/C=C2\NC(=O)NC2=O)cc1	inactive: 7.87%

Compound	growth rescue (activation)
COc1ccc(/C=C/C(=O)c2ccc3c4c(cccc24)CC3)cc1OC	inactive: 3.15%
Cc1cc(C(=O)NC2CCC(O)CC2)c(C)o1 (stereo not drawn)	inactive: 24.6%
Cc1ccc(NCc2nnc(SCC(=O)O)n2Cc2ccccc2)cc1Cl	inactive: -1.35%
Cc1ccc(C)c(OCC(=O)Nc2ccc(S(=O)(=O)Nc3ccccn3)cc2)c1	inactive: -3.35%
CCc1cccc(CC)c1NC(=O)c1ccc(-n2cncn2)nc1	inactive: -10.3%
O=C(O)c1cnc2[nH]c3ccccc3n2c1=O	inactive: 26.8%
CCOC(=O)c1c(NC(=O)CCNCc2ccco2)sc2c1CCC2	inactive: -7.14%
COc1ccc(N2CCN(S(=O)(=O)c3cnc[nH]3)CC2)cc1	inactive: -17.9%
COc1cccc(C2C3=C(CC(C)(C)CC3=O)Nc3n[nH]c(C)c32)c1 (stereo not drawn)	inactive: 18.3%
CCC(C)(C)C1CCC(=NNS(=O)(=O)c2ccc(C)c([N+](=O)[O-])c2)CC1 (stereo not drawn)	inactive: 33.8%
Cc1ccc(C2(c3ccc(C)cc3)CC2C(=O)NC(C)C)cc1 (stereo not drawn)	inactive: 0.312%
O=C1CN(C(=O)CSc2nc3ccccc3c(=O)n2Cc2ccc(F)cc2)c2ccccc2N1	inactive: 7.92%
COCCNC(=O)C1(C)CCCN(C(=O)c2ccc(C(=O)OC)cc2)C1 (stereo not drawn)	inactive: 5.86%
Cc1[nH]ncc1-c1nc2ccccc2[nH]1	inactive: 5.98%
COCc1c(C(=O)N2CCc3ccccc32)oc2ccccc12	inactive: 13%
COc1ccc(N(Cc2ccccc2)N=O)cc1	inactive: 24.6%
O=C1NC2(CCCCCC2)C(=O)N1Cc1ccc(F)cc1Cl	inactive: 14.7%
CCN(C(=O)CSc1nnc2c3ccccc3n(CC)c2n1)C1CCS(=O)(=O)C1 (stereo not drawn)	inactive: 11%
O=C(Cn1cccc1C(=O)c1ccccc1)NCc1ccccc1Cl	inactive: 14.8%
CCOc1cc(/C=C2/SC(=S)N(CC3CCCO3)C2=O)ccc1O (stereo not drawn)	inactive: -18.3%
CC(C)(C)C(=O)/C(C#N)=C/c1ccc(O)cc1	inactive: 6.39%
Cc1c(Cl)cccc1NC(=O)Cn1nnc(-c2nc(-c3ccccc3)no2)c1N	inactive: 20.7%

Compound	growth rescue (activation)
Cc1cc(C)nc(Nc2nc(C(N)CCc3ccccc3)cs2)n1 (stereo not drawn)	inactive: 14.4%
CN(C)CCCNC(=O)c1ccc(Oc2ccccc2)cc1	inactive: -13.2%
Cc1cc(=O)[nH]c(SCCc2ccccc2)n1	inactive: -0.213%
N#Cc1ccc(COC(=O)c2cnc(Cl)c(Cl)c2)cc1	inactive: 18.9%
O=C(NC(=S)Nc1ccccc1CO)C1CCCCC1	inactive: 10.1%
COc1ccc(C(=O)NCCCSc2ccccc2)cc1F	inactive: 19.4%
Cc1coc2cc3oc(=O)c(CCC(=O)O)c(C)c3cc12	inactive: -24%
Cc1ccccc1Nc1c(-c2ccc(N3CCOCC3)cc2)nc2cnccn12	inactive: 28.1%
COc1ccccc1NC(=O)CCSc1nnnn1C	inactive: 19.8%
Cc1ccc(S(=O)(=O)Nc2c(C)n(C)n(-c3ccccc3)c2=O)cc1C(=O)OCC(=O)N1CCCC(C)C1 (stereo not drawn)	inactive: 21.7%
O=C(CCc1ccccc1)OCCOC(=O)CCc1ccccc1	inactive: 1.77%
CCOC(=O)N1CCC(=NNC(N)=O)CC1	inactive: -11.7%
C/C(=N\Nc1nc2ccccc2s1)c1cccs1	inactive: -3.49%
CCCN(CC1CCCO1)C(=O)c1cc(COc2ccc(F)cc2F)on1 (stereo not drawn)	inactive: 20.3%
CCN(CC)c1nc(C#N)nc(N(CC)CC)n1	inactive: 27.6%
CCC1(c2ccc(Cl)cc2)NC(=O)N(CC(=O)N2CCN(C(=O)c3ccco3)CC2)C1=O (stereo not drawn)	inactive: 19.1%
CCn1c(SCC(O)c2ccccc2)nnc1-c1ccccc1 (stereo not drawn)	inactive: -4.03%
NC(=O)C1CCN(c2oc(-c3cccs3)nc2S(=O)(=O)c2ccc(Br)cc2)CC1	inactive: 3.73%
Cc1ccc(S(=O)(=O)/N=C2/NC(=O)/C(=C/c3ccccc3)S2)cc1	inactive: -1.98%
CCNc1nc(SCC(=O)Nc2ccc(Cl)c(Cl)c2)nc(N2CCOCC2)n1	inactive: 23.1%
